# From the supplement of paper PMC3334620
# In all, about 33,000 sequences were measured (“E-score (-0.5 to 0.5)”: median about -0.043, highest 2% from about 0.37 on). This is one part of the list.
# Target: T1, Upc2 (UniProt Q12151)
# T1 sequence: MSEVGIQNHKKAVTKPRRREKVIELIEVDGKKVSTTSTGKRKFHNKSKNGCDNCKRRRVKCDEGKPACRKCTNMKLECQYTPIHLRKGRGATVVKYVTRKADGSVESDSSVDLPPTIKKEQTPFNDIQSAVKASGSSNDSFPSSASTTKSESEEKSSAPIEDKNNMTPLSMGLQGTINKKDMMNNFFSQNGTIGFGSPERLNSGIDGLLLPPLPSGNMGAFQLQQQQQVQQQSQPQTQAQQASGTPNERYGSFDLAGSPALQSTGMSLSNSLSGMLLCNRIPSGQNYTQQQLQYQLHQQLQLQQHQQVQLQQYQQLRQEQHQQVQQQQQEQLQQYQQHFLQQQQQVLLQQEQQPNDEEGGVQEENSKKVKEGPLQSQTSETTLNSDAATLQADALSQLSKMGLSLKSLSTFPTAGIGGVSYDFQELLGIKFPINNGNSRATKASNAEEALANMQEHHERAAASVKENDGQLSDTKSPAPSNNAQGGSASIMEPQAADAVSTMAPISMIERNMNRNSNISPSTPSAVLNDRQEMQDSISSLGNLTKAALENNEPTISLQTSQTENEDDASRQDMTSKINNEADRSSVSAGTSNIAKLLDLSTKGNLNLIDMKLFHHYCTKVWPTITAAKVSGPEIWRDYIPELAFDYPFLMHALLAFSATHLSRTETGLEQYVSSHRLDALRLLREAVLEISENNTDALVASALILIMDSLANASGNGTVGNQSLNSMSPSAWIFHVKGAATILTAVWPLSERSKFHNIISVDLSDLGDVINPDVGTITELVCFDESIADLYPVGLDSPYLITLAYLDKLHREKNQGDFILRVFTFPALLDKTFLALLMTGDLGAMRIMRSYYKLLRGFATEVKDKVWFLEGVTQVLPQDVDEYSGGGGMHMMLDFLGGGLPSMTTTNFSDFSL
# Test: PBM E-score (8-mer binding enrichment) (E-score (-0.5 to 0.5)); higher = stronger / more preferred TF binding; most listed sequences are background and not binding sites
# Details: protein concentration: 200 nM; construct: GST-full length
# Method in brief: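 Universal all-10-mer Agilent arrays, double-stranded by primer extension on fresh or once-stripped slides, were probed with about 100-200 nM GST-tagged yeast transcription factors made by PURExpress. Fluorescent anti-GST detected bound protein, and masliner normalised the scans. E-scores from the Universal PBM Analysis Suite were given to each ungapped eight-base word pooled with its reverse complement.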
row,Sequence,PBM E-score
1,ACGGGCCT,0.078
2,CGCCGGTA,0.0435
3,AAACTATT,-0.0103
4,GATCCGGC,-0.0848
5,CTGATGCA,-0.163
6,ATGAATCC,-0.0932
7,GCATTCCA,-0.123
8,ATGGTGAA,-0.0469
9,AAAACTAA,0.109
10,ACCAATTC,-0.113
11,CGGCTCCA,-0.143
12,ATTCCGCC,-0.136
13,CAAACAGA,-0.0761
14,CCAGTGCG,-0.0422
15,CATGTTGC,-0.0436
16,ATCTTTAG,-0.079
17,CCACTCGG,0.0488
18,TATACGCA,0.449
19,AGTCGCGC,0.0136
20,CCGATGAC,-0.0589
21,CGTCCTGC,-0.214
22,CGATGACC,0.198
23,ACAGCGAT,0.0232
24,AATAAGGT,-0.0384
25,ATGATAAG,-0.088

row,Sequence,PBM E-score
1,ACAAGCGT,0.0145
2,ATCTAGGA,-0.0379
3,GACGCCGC,-0.0285
4,ACCCGGCA,-0.0931
5,CCGCAATA,-0.0199
6,CAACAAAG,-0.00411
7,ACAGTACG,0.289
8,GATACGAA,0.454
9,ATACGTTC,0.342
10,CAAATCGA,0.0385
11,GGTGCTTA,-0.0437
12,ACTCTATC,-0.123
13,CGTTTGAA,0.35
14,CGTACGAG,0.465
15,GCGTGAAC,0.178
16,AAGGTGGC,-0.0337
17,CTATGAAG,-0.114
18,ATGCGCAT,0.0386
19,CGATGAGC,0.0788
20,AATAGTAC,0.168
21,ATCGGGCG,-0.11
22,AATGAACC,-0.215
23,ACCACCGT,0.256
24,AATATTCC,0.0175
25,ACGGGGGG,0.144

row,Sequence,PBM E-score
1,AGCCTCAC,-0.132
2,CCGAATGA,0.136
3,CGGCGCAC,-0.108
4,GCTCTGTA,0.0266
5,AGTAAAAA,-0.0254
6,AGTAGGGA,-0.108
7,ATCTCCTC,-0.15
8,CTACGCTC,-0.0609
9,AAGGGTTA,-0.0151
10,ATTTTGCG,0.117
11,GCGCCCCC,-0.275
12,CCGTCGAG,-0.0803
13,AAATAATT,0.0449
14,AGAGAACG,0.244
15,ATGTTTAA,0.067
16,AGAAGTCA,-0.169
17,ATACTGTC,0.0795
18,CTCCTGCA,-0.139
19,AGGCGCGC,0.0734
20,CATCCGAG,0.156
21,CGTGTTAA,-0.0587
22,GGCACACA,-0.136
23,GCTTTCAA,-0.0049
24,CGTGCCAC,-0.0715
25,CGACAGAA,0.208

row,Sequence,PBM E-score
1,ACAAAGGG,-0.342
2,CGGCTACG,0.32
3,GAGTCTAA,-0.0797
4,CGGTTCAA,-0.0515
5,GGGGTAAC,-0.00249
6,AGCGTGGA,-0.0828
7,ATTGCTAG,-0.174
8,ACAGGCTC,-0.00845
9,GGAGCTCA,-0.16
10,CACAGCCG,-0.0707
11,AGTCCTTA,-0.198
12,CCGTTAAA,0.33
13,CTCAGAAC,0.0403
14,AACATCGA,-0.00447
15,GCCAGGGA,-0.103
16,ATCACAAA,-0.0424
17,AGTTACCC,-0.0071
18,GCCAATGA,-0.0974
19,GACGCTGC,-0.0847
20,ACTCAACA,-0.137
21,GGACCGCA,0.0332
22,CGTGAGGA,-0.188
23,CTTACCGC,-0.019
24,AGACGCAG,-0.129
25,CTACCAAC,0.0316

row,Sequence,PBM E-score
1,ACCCTAGA,-0.0169
2,ACTAAAGA,-0.0119
3,CAGTTTTA,-0.112
4,ATGTACAG,-0.0922
5,CAATTCGA,0.125
6,GCTTATCC,-0.00299
7,CGACGTAG,0.171
8,CAGTCCAC,-0.219
9,CCAGGTAG,-0.22
10,ATCAGGAT,0.0669
11,CTTCAAAG,-0.212
12,ACCGTACG,0.383
13,GGATCGAC,-0.14
14,ACAACCCT,0.0138
15,ATTTGAAA,0.0202
16,ACATCAAA,-0.0352
17,CCAAAGGA,-0.235
18,AGAGATGC,-0.0485
19,ATGTCCAG,-0.0844
20,ATCCGGAT,-0.191
21,ATCCGGTA,0.0978
22,AGAATTTC,-0.0372
23,TGACGCAA,-0.138
24,AACTGCAT,-0.0422
25,CACCGGCG,-0.105

row,Sequence,PBM E-score
1,AATACTGT,0.082
2,AACCTGAT,-0.0341
3,CCAGCTTA,-0.102
4,AATATAAG,0.0611
5,GGCAGAGA,-0.14
6,AGTGGGGG,-0.314
7,AGAAGTTG,0.0297
8,ATGGAGCC,-0.201
9,TAATGTGA,-0.106
10,ACGAATCA,0.297
11,CGGCCATC,-0.227
12,AATATGCT,0.094
13,CAATCCTC,-0.205
14,TATAAGCA,0.117
15,GTACCTGA,0.162
16,AAGCACTG,-0.0383
17,CAAGGCAC,-0.0921
18,GTAGTTCA,-0.0988
19,CCCCGGGC,-0.22
20,CTGTGGAC,-0.23
21,GAGGACTC,-0.0936
22,CCGTTTGC,0.304
23,AACTCCTA,-0.0156
24,AGATATTG,-0.106
25,ACAAAGAA,0.0923

row,Sequence,PBM E-score
1,GAATAAGC,-0.137
2,GATCGGAA,-0.0015
3,ATTAACTG,0.0926
4,GATAATGC,-0.0042
5,GTCTCCTA,-0.12
6,CTGAGGCC,-0.124
7,TGCTAGAA,0.0223
8,AACAGCGT,0.0176
9,CAAACCCC,-0.202
10,CGTGACGC,0.0229
11,AATCAGCT,-0.174
12,CGAATAAA,0.264
13,CGAGGCAA,0.15
14,TCACTCGA,0.0443
15,CAGACACA,-0.0758
16,AGTTGCTA,-0.0402
17,CACGGGCG,-0.203
18,CTAGGGTC,-0.15
19,AGGCACAG,-0.198
20,ATCGGTAA,0.274
21,AGCCTTGA,-0.0944
22,AGACGGGC,-0.0532
23,AAGTCTCT,-0.104
24,ATCTACAG,-0.185
25,CAATGTGA,-0.0553

row,Sequence,PBM E-score
1,GAGCTCAC,0.055
2,GCTGGCCA,-0.239
3,CCTACTTA,-0.246
4,ACAGACAA,0.156
5,CGCACGCA,0.0259
6,CAGGGACA,-0.0338
7,GTATTTCA,0.00837
8,AGCTCGGA,0.0921
9,ACGGATTC,0.178
10,TATGCGGA,0.0785
11,AGTGTTGG,-0.0355
12,CGTTGTTA,0.0821
13,GAGGCGCC,0.124
14,CGAGTACG,0.348
15,CAACTACG,0.0383
16,TAGGAAGA,-0.288
17,CACCCCAC,-0.121
18,ACCAAGGT,-0.122
19,TCTGTAAA,0.0425
20,ACCATCCT,-0.127
21,AAATATCG,0.0759
22,CGCTGGGA,-0.0151
23,ATGATAAA,0.0843
24,ATATACGG,0.456
25,CCCCAAAA,-0.0915

row,Sequence,PBM E-score
1,CATCTAGG,-0.155
2,CTTCGTAA,0.427
3,CCTAATAA,0.195
4,ATAAGCCC,-0.0735
5,GGATACGA,0.463
6,ACTCGATG,0.0489
7,CAGGCCTG,-0.172
8,CGCAGGGA,-0.261
9,CCTCAGGA,-0.137
10,AAAACCCA,0.0439
11,GCTCGCAA,0.225
12,ACTGGGTG,-0.201
13,ACTCTTTC,-0.117
14,CCTTCTGA,-0.164
15,ATCTAGAA,-0.0939
16,TACCCCTA,-0.122
17,TAGATCTA,-0.067
18,ATATCAAA,-0.04
19,AGCCGTTC,0.212
